Data: article PMC5101352
No constants are given. Whether binding was seen depends on the method and setting. Some entries that bind do so weakly or less than the wild type. For part of these data: Tags and fused reporters may be left off the sequences shown.

Amino acid sequences for entries named in this document (tags omitted).
UniProt P0A705: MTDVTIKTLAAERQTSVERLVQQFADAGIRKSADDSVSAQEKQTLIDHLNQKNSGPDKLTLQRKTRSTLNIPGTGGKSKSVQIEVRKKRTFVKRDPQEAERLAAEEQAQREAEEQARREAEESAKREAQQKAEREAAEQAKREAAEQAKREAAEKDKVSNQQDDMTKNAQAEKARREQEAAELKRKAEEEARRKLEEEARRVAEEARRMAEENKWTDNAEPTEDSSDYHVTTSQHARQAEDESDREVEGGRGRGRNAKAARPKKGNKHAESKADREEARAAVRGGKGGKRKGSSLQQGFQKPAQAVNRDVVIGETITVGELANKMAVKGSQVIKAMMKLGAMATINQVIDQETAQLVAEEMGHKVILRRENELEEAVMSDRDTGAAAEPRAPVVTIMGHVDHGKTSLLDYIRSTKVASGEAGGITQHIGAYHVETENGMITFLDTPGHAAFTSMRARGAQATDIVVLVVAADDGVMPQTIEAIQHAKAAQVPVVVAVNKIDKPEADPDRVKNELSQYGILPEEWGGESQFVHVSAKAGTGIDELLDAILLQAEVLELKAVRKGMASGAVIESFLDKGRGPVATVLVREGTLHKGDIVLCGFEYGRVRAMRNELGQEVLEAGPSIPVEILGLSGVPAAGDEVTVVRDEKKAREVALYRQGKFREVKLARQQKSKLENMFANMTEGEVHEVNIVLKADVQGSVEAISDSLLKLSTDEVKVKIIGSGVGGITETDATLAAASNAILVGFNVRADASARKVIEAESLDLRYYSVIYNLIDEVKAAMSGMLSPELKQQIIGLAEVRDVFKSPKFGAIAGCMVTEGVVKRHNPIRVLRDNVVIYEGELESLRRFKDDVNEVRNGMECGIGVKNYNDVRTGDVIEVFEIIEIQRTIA
UniProt P0AE72: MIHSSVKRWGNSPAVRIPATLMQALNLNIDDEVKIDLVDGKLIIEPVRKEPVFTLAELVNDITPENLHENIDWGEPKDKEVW
UniProt P21513: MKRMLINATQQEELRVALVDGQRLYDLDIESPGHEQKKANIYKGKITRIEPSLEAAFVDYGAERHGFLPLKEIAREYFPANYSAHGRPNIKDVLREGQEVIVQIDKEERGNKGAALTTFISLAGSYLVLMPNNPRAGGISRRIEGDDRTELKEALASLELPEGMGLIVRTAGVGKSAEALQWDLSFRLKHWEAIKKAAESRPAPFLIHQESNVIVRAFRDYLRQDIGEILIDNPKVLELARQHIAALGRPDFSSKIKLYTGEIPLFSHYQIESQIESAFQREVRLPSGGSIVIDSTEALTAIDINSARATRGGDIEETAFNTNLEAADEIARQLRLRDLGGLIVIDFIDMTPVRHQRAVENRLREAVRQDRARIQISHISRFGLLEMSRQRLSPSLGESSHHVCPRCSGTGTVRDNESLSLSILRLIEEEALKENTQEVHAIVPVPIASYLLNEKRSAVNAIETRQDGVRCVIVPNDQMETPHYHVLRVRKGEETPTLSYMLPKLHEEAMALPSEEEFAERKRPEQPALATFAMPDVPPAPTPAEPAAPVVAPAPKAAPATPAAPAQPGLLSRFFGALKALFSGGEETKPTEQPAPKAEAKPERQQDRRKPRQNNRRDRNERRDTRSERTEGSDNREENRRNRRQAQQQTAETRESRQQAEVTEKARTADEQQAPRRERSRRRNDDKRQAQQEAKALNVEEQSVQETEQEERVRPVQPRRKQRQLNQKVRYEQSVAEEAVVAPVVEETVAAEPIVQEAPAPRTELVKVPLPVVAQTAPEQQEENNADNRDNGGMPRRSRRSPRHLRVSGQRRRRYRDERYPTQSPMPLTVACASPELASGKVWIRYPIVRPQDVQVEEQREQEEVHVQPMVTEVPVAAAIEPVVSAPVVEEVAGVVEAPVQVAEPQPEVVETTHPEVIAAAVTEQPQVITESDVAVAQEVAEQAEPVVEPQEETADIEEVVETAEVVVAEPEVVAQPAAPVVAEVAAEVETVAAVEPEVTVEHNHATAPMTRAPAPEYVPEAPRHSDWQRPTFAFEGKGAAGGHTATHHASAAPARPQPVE
UniProt P42641: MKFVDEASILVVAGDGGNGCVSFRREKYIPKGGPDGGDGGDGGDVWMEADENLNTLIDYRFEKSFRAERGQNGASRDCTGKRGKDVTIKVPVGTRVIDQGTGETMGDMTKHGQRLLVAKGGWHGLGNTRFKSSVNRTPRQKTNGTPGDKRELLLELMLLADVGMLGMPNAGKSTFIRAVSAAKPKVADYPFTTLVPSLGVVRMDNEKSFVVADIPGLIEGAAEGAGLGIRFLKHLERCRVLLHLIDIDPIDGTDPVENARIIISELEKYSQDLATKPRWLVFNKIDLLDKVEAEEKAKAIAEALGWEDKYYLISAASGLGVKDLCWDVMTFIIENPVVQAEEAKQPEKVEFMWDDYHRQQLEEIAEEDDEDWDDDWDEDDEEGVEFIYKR
UniProt P0A6X3: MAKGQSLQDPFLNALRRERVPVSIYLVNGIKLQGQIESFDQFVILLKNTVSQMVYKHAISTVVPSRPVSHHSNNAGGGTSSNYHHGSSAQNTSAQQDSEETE

Assays:
[1] = molecular target: YbeY (E. coli), bacterial two-hybrid fusion (E. coli) (UniProt P0A898); assay: two-hybrid; bacterial adenylate cyclase two-hybrid (BACTH) in E. coli BTH101; T25 and T18 fusions; spots or streaks on LB agar with X-Gal, IPTG and TPEG, 30°C, colour read after 2 or 3 days
[2] = molecular target: YbeY (E. coli), bacterial two-hybrid fusion (E. coli) (UniProt P0A898); assay: two-hybrid; BACTH liquid culture assay in E. coli BTH101; T25-YbeY and x-T18; beta-galactosidase activity (Beta-Glo, RLU normalised to cell density) over 72 h
[3] = molecular target: T1, Nucleoside triphosphate pyrophosphohydrolase MazG, bacterial two-hybrid fusion (E. coli) (UniProt P0AEY3); assay: two-hybrid; bacterial adenylate cyclase two-hybrid (BACTH) in E. coli BTH101; T25 and T18 fusions; spots or streaks on LB agar with X-Gal, IPTG and TPEG, 30°C, colour read after 2 or 3 days
T1 sequence: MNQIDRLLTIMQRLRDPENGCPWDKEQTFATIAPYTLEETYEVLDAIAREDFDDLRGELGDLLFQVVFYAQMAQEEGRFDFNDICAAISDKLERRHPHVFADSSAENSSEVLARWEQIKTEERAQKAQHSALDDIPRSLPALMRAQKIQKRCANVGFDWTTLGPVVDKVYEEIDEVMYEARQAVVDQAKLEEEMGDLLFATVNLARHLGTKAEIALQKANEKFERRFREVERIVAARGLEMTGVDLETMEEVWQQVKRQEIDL

[4] = molecular target: YbeY D85R (T25-YbeY mutant) (E. coli) (UniProt P0A898); assay: as above
[5] = molecular target: YbeY D85R R44D (T25-YbeY mutant) (E. coli) (UniProt P0A898); assay: as above
[6] = molecular target: YbeY D85R T42F (T25-YbeY mutant) (E. coli) (UniProt P0A898); assay: as above
[7] = molecular target: YbeY H114A H124A (T25-YbeY mutant) (E. coli) (UniProt P0A898); assay: as above
[8] = molecular target: YbeY K61E (T25-YbeY mutant) (E. coli) (UniProt P0A898); assay: as above
[9] = molecular target: YbeY R44D (T25-YbeY mutant) (E. coli) (UniProt P0A898); assay: as above
[10] = molecular target: YbeY R59E (T25-YbeY mutant) (E. coli) (UniProt P0A898); assay: as above
[11] = molecular target: YbeY R59E K61E (T25-YbeY mutant) (E. coli) (UniProt P0A898); assay: as above
[12] = molecular target: YbeY T42F (T25-YbeY mutant) (E. coli) (UniProt P0A898); assay: as above

Initiation factor 2 (IF2), bacterial two-hybrid fusion (from UniProt P0A705 1-890)
binding [1]: no binding

Bifunctional (p)ppGpp synthase/hydrolase SpoT, bacterial two-hybrid fusion (from UniProt P0AG24 1-702)
binding [1]: binds

Antitoxin MazE, bacterial two-hybrid fusion (from UniProt P0AE72 1-82)
binding [1]: no binding

RNase E, bacterial two-hybrid fusion (from UniProt P21513 1-1061)
binding [1]: no binding

GTPase ObgE, bacterial two-hybrid fusion (from UniProt P42641 1-390)
binding [1]: no binding

GTPase Era, bacterial two-hybrid fusion (from UniProt P06616 1-301)
binding [2]: binds | binding [3]: binds | binding [1]: binds | binding [4]: binds | binding [5]: binds | binding [6]: binds | binding [7]: binds | binding [8]: binds | binding [9]: binds | binding [10]: binds | binding [11]: binds | binding [12]: binds

RNA chaperone Hfq, bacterial two-hybrid fusion (from UniProt P0A6X3 1-102)
binding [1]: no binding
